Experimental data published in the antibiotic and cytotoxicity screens of Wong et al. (2023).
The list shows a part of the results.

Tests used:
[1] = tested on: HSkMC (human skeletal muscle cells); assay: cytotoxicity call (relative viability < 0.9); conditions: 10 µM
[2] = tested on: HepG2; assay: cytotoxicity call (relative viability < 0.9); conditions: 10 µM
[3] = tested on: S. aureus RN4220; assay: growth inhibition call (relative growth <= 0.2); conditions: 50 µM

Row | Compound | cytotoxicity call [1] | cytotoxicity call [2] | growth inhibition call [3]
1 | C[C@@H]1CN([C@@H](C)CO)S(=O)(=O)c2ccc(C#Cc3ccncc3)cc2O[C@@H]1CN(C)C(=O)C1CCCCC1 | inactive | active | inactive
2 | Cc1ccc(S(=O)(=O)N(C)C[C@@H]2OCCCC[C@@H](C)Oc3ccc(NC(=O)Nc4ccc5c(c4)OCO5)cc3C(=O)N([C@@H](C)CO)C[C@H]2C)cc1 | inactive | inactive | inactive
3 | C[C@@H]1CN([C@H](C)CO)C(=O)CCCn2nncc2CO[C@@H]1CN(C)C(=O)Nc1cccc(Oc2ccccn2)c1 | inactive | inactive | inactive
4 | C/C(=C\CO)CC[C@H](C)CCC[C@H](C)CCCC(C)C | inactive | inactive | inactive
5 | O=c1cc(-c2ccccc2)oc2ccc(O)cc12 | inactive | inactive | inactive
6 | C[C@H]1CN([C@@H](C)CO)C(=O)c2cccc(NC(=O)Nc3cccc4ccccc34)c2O[C@H]1CN(C)C(=O)NC1CCCCC1 | inactive | inactive | inactive
7 | C[C@H]1O[C@@H](O[C@H]2[C@@H](O)C[C@H](O[C@H]3[C@@H](O)C[C@H](O[C@H]4CC[C@@]5(C)[C@H](CC[C@@H]6[C@@H]5CC[C@]5(C)[C@@H](C7=CC(=O)OC7)CC[C@]65O)C4)O[C@@H]3C)O[C@@H]2C)C[C@H](O)[C@@H]1O | active | active | inactive
8 | C[C@H](CO)N1C[C@H](C)[C@H](CN(C)C(=O)Nc2ccccc2F)Oc2ncc(C#CCN(C)C)cc2C1=O | inactive | inactive | inactive
9 | COc1ccc(CN(C)C[C@H]2OCCCC[C@H](C)Oc3ccc(NC(=O)Nc4ccccc4)cc3C(=O)N([C@@H](C)CO)C[C@H]2C)cc1 | inactive | inactive | inactive
10 | COc1ccc(NC(=O)N(C)C[C@@H]2Oc3ncc(C#CCN(C)C)cc3C(=O)N([C@@H](C)CO)C[C@H]2C)cc1 | inactive | inactive | inactive
11 | CSc1nc(=O)cc(O)[nH]1 | inactive | inactive | inactive
12 | CC(C)NC(=O)N(C)C[C@@H]1Oc2c(NS(=O)(=O)c3ccc(F)cc3)cccc2C(=O)N([C@@H](C)CO)C[C@@H]1C | inactive | inactive | inactive
13 | C[C@H]1CN([C@@H](C)CO)C(=O)Cc2cc(NC(=O)Cc3cn(C)c4ccccc34)ccc2O[C@H]1CN(C)C(=O)Nc1ccc(C(F)(F)F)cc1 | inactive | inactive | inactive
14 | C[C@H]1CN([C@@H](C)CO)C(=O)c2cccc(NS(C)(=O)=O)c2O[C@H]1CN(C)Cc1ccc(C(=O)O)cc1 | inactive | inactive | inactive
15 | C[C@H](CO)N1C[C@H](C)[C@H](CN(C)C(=O)Nc2ccc(C(F)(F)F)cc2)OCCCC[C@H](C)Oc2ccc(NC(=O)Nc3ccc4c(c3)OCO4)cc2C1=O | inactive | inactive | inactive
16 | O=C(CCCCCNC(=O)OCc1ccc(CO[C@@H]2C[C@H](c3ccc(C(F)(F)F)cc3)C=C(C(=O)N3CCN(Cc4ccc5c(c4)OCO5)CC3)O2)cc1)NO | inactive | inactive | inactive
17 | Cc1cccc(S(=O)(=O)N2C[C@@H](O)COC[C@H]3O[C@@H](CC(=O)N4CCN(C)CC4)CC[C@@H]32)c1 | inactive | inactive | inactive
18 | C[C@@H]1CN([C@@H](C)CO)C(=O)CCCn2cc(nn2)CO[C@H]1CN(C)C(=O)CCCN(C)C | inactive | inactive | inactive
19 | C[C@@H]1CCCCO[C@H](CN(C)Cc2ccccc2)[C@@H](C)CN([C@H](C)CO)C(=O)c2cc(NC(=O)Nc3ccc(C(F)(F)F)cc3)ccc2O1 | active | active | inactive
20 | CN(C)CCOC(C)(c1ccccc1)c1ccccn1.O=C(O)CCC(=O)O (configuration not stated) | inactive | inactive | inactive
21 | O=C(C[C@@H]1CC[C@@H]2[C@H](COC[C@H](O)CN2S(=O)(=O)c2ccc(Oc3ccccc3)cc2)O1)NC1CCC1 | inactive | inactive | inactive
22 | C[C@H](CO)N1C[C@H](C)[C@@H](CN(C)C(=O)Nc2ccc3c(c2)OCO3)OCc2cn(nn2)CCCC1=O | inactive | inactive | inactive
23 | COc1ccc(NC(=O)N[C@H]2CC[C@H](CCNC(=O)CN3CCOCC3)O[C@@H]2CO)cc1 | inactive | inactive | inactive
24 | CC[C@H](C)[C@H](N)C1=N[C@H](C(=O)N[C@@H](CC(C)C)C(=O)N[C@H](CCC(=O)O)C(=O)N[C@H](C(=O)N[C@H]2CCCCNC(=O)[C@H](CC(N)=O)NC(=O)[C@@H](CC(=O)O)NC(=O)[C@H](Cc3cnc[nH]3)NC(=O)[C@@H](Cc3ccccc3)NC(=O)[C@H]([C@@H](C)CC)NC(=O)[C@@H](CCCN)NC2=O)[C@@H](C)CC)CS1 | inactive | inactive | active
